{"source": "ChEMBL document CHEMBL4888484", "about": "“Replenishing the malaria drug discovery pipeline: Screening and hit evaluation of the MMV Hit Generation Library 1 (HGL1) against asexual blood stage Plasmodium falciparum ,using a nano luciferase reporter read-out” (2022)", "note": "About 540 (0.36%) of roughly 150,000 compounds showed an effect of 50% or more. The list shows a part of the results."}
{"test_system": "Plasmodium falciparum", "assay": "Primary screen in NF54 nanoGlo assay, in single point, at 2uM, 72h; a lower Z score goes with more inhibition", "assay_type": "functional, Erythrocyte", "conditions": "timepoint 72 hour", "units": {"% Inhibition": "%"}}
{"smiles": "O=C(NCCc1ccccc1)Nc1cccc(-c2cnc3n2CCC3)c1", "% Inhibition": -3, "Z score": 0.39}
{"smiles": "CC(=O)Nc1sc2c(c1C(=O)Nc1cccc3ccccc13)CCCC2", "% Inhibition": 11, "Z score": -1.34}
{"smiles": "COC[C@H]1CCCN1S(=O)(=O)NCc1cc2ccccc2[nH]1", "% Inhibition": -5, "Z score": 0.49}
{"smiles": "O=C(Cc1nnc(-c2cccs2)o1)NCCc1ccccc1", "% Inhibition": -14, "Z score": 1.41}
{"smiles": "O=C(NCCc1nnc[nH]1)Nc1c(F)cccc1Oc1ccccc1", "% Inhibition": 34, "Z score": -3.88}
{"smiles": "c1coc(-c2nc3c(c(NCCc4cscn4)n2)CCNCC3)c1", "% Inhibition": -12, "Z score": 1.07}
{"smiles": "CC(NC(=O)CN1CCCC1c1cccs1)c1ccc(F)cc1", "note": "(configuration not stated)", "% Inhibition": -9, "Z score": 0.96}
{"smiles": "COc1ccc(OC)c(-c2ccn(CC(=O)Nc3cn(C)nn3)n2)c1", "% Inhibition": -12, "Z score": 1.77}
{"smiles": "Cc1ccc(O)c(-c2nc3c([nH]2)c(-c2ccccc2)nn3C)c1", "% Inhibition": -1, "Z score": 0.13}
{"smiles": "O=C(CN1C(=O)C2(OCCO2)c2ccccc21)c1ccccc1", "% Inhibition": -9, "Z score": 1.17}
{"smiles": "Cc1nnc([C@H](C)NC(=O)c2coc(COc3cccc4cccnc34)n2)o1", "% Inhibition": 3, "Z score": -0.4}
{"smiles": "Cc1ccc(NC(=O)N2CC(CO)(CO)C2)cc1", "% Inhibition": -1, "Z score": 0.27}
{"smiles": "Cc1nc(C(=O)NCc2cccs2)c(C)[nH]1", "% Inhibition": -16, "Z score": 2.09}
{"smiles": "CN(CC1=CCCN(CCNC(N)=O)C1)C(=O)C1CCCCC1", "% Inhibition": -3, "Z score": 0.37}
{"smiles": "CCc1nnc2c(=O)n(CC(=O)NCc3cccc(Cl)c3)c3cccnc3n12", "% Inhibition": -5, "Z score": 0.63}
{"smiles": "O=C(Nc1ccccc1C(=O)n1cnc2ccccc21)c1cccnc1O", "% Inhibition": -12, "Z score": 1.84}
{"smiles": "O=C1[C@@H](Nc2ncccn2)CCN1c1ccc(F)c(Cl)c1", "% Inhibition": -7, "Z score": 0.87}
{"smiles": "Cn1nncc1NC(=O)NC1(C(F)(F)F)CCC1", "% Inhibition": 2, "Z score": -0.3}
{"smiles": "COc1ccc(CCNC(=O)C2(c3cccc(Cl)c3)CCC2)cc1OC", "% Inhibition": -2, "Z score": 0.21}
{"smiles": "Cc1ncc(CN2CC(C)(C)[C@H]2c2ccccc2)n1C", "% Inhibition": -10, "Z score": 1.05}
{"smiles": "COc1ccc(Cl)cc1S(=O)(=O)N1CC[C@H](c2ccc3c(c2)OCO3)C1", "% Inhibition": 6, "Z score": -0.78}
{"smiles": "CCn1cc(CNc2nnc(C(C)C)s2)cn1", "% Inhibition": -7, "Z score": 1.06}
{"smiles": "COc1ccc(OC)c(-c2ccnc(-n3ncc(C(=O)N4CCN(C(C)C)CC4)c3C)n2)c1", "% Inhibition": 5, "Z score": -0.69}
{"smiles": "CCC(=O)N1CCN(C(=O)Nc2ccc(Cl)cc2)[C@H]2CS(=O)(=O)C[C@H]21", "% Inhibition": -28, "Z score": 2.49}
{"smiles": "COc1ccc(CNC(=O)c2ccc(S(=O)(=O)N[C@H]3CCS(=O)(=O)C3)cc2)cc1", "% Inhibition": -11, "Z score": 2.05}
{"smiles": "CCOc1ccc(C(C)(C)C(=O)N[C@@H](C)c2ccncc2F)cc1OCC", "% Inhibition": -9, "Z score": 1.34}
{"smiles": "Cc1noc(C(NC(C)Cn2cnc(C)c2C)C(C)C)n1", "note": "(configuration not stated)", "% Inhibition": -5, "Z score": 0.52}
{"smiles": "CN1CCc2cc(-c3nc(C(=O)O)cs3)ccc21", "% Inhibition": -4, "Z score": 0.85}
{"smiles": "C=C[C@](C)(CCOC)C(=O)N1Cc2cccc(Br)c2C1", "% Inhibition": -7, "Z score": 0.71}
{"smiles": "Cc1cc2c(cc1S(=O)(=O)N1CCC[C@H]1C(=O)Nc1cccc(Cl)c1)OCC(=O)N2", "% Inhibition": -7, "Z score": 1.4}
{"smiles": "Cc1csc(NC(=O)C(F)(F)C(F)(F)C(=O)Nc2nc(C)cs2)n1", "% Inhibition": 0, "Z score": 0.02}
{"smiles": "Cc1nc(Cn2nnnc2C)sc1C", "% Inhibition": 1, "Z score": -0.1}
{"smiles": "Cc1ccc(C)c(N2CCN(Cc3nc(-c4ccc(N5CCCC5)nc4)no3)CC2)c1", "% Inhibition": -2, "Z score": 0.24}
{"smiles": "COCC1(NC(=O)Nc2ccncn2)CCC1", "% Inhibition": -4, "Z score": 0.68}
{"smiles": "Cc1ccc(C(=O)N(CCN(C)C)CC(=O)OC(C)(C)C)cn1", "% Inhibition": -5, "Z score": 0.99}
{"smiles": "CCN(CC)CCNC(=O)c1ccc2c(c1)n(Cc1ccccc1)c(=O)c1ccnn12", "% Inhibition": 6, "Z score": -0.88}
{"smiles": "CCc1nc(C(C)C)ccc1CN1CCC2(CC1)COC(=O)N2", "% Inhibition": -6, "Z score": 1}
{"smiles": "Cc1nc(N[C@@H](CO)c2ccc(F)cc2F)c2c(C)csc2n1", "% Inhibition": -5, "Z score": 0.94}
{"smiles": "CCN1CCO[C@@H](CNCc2c(C)nn(C)c2Cl)C1", "% Inhibition": -5, "Z score": 0.67}
{"smiles": "O=C(NC[C@H](C(=O)O)C1CCCCC1)c1cccc(C(F)F)c1", "% Inhibition": -16, "Z score": 1.97}
{"smiles": "Cc1cnc(C2CC2)n1[C@H]1CCCN(S(=O)(=O)C(C)C)C1", "% Inhibition": 0, "Z score": 0.01}
{"smiles": "O=S(=O)(c1c(Cl)cccc1Cl)N1CCC[C@H]1c1nc2ccccc2s1", "% Inhibition": -3, "Z score": 0.51}
{"smiles": "Fc1ccc2ncnc(N3CCc4c(F)ccc(F)c4C3)c2c1", "% Inhibition": -12, "Z score": 1.52}
{"smiles": "COC1(C)CC(NC(=O)CCCc2nccs2)C1(C)C", "note": "(configuration not stated)", "% Inhibition": -5, "Z score": 0.6}
{"smiles": "O=C1OC(C(=O)NC2CCS(=O)(=O)C2)Cc2ccccc21", "note": "(configuration not stated)", "% Inhibition": -10, "Z score": 1.95}
{"smiles": "CC(C)N1C(=O)N[C@@H]2CN(c3ccc(S(C)(=O)=O)cc3)CC[C@@H]21", "% Inhibition": 31, "Z score": -3.55}
{"smiles": "Cc1ccc(NC(=O)C[C@@H]2C=CCC2)nc1", "% Inhibition": -14, "Z score": 1.28}
{"smiles": "COc1ncncc1NCc1cnn(C(C)C)c1", "% Inhibition": -3, "Z score": 0.63}
{"smiles": "Cn1cc(-c2ccc(Cl)cc2)c2ncn(CC(=O)Nc3ccccc3Cl)c(=O)c21", "% Inhibition": -18, "Z score": 2.61}
{"smiles": "CN1CCN(S(N)(=O)=O)C[C@]12CCNC(=O)CC2", "% Inhibition": -1, "Z score": 0.13}
{"smiles": "CCN1CCO[C@H](C(=O)Nc2nccn2C2CC2)C1", "% Inhibition": -5, "Z score": 1.03}
{"smiles": "CCOc1ccc(CNC(=O)C(C)C)cc1Cl", "% Inhibition": -7, "Z score": 1.3}
{"smiles": "CC(NC1CCC(=O)N(C)C1)c1nc(C(F)(F)F)cs1", "note": "(configuration not stated)", "% Inhibition": 0, "Z score": -0.05}
{"smiles": "COC(C)C(=O)NC(C)CC(=O)c1ccco1", "note": "(configuration not stated)", "% Inhibition": -7, "Z score": 1.07}
{"smiles": "Cn1c(=O)[nH]c(=O)c2c1nc(N1CCCCCC1)n2CCCOc1ccccc1", "% Inhibition": -7, "Z score": 1.03}
{"smiles": "Cc1ccc(NC(=O)C2CCN(S(=O)(=O)c3c(C)[nH]c(C)c3C(=O)N3CCCC3)CC2)c(Cl)c1", "% Inhibition": -12, "Z score": 1.18}
{"smiles": "CC(=O)N[C@H]1C[C@@H](c2cc(N3CCN(c4cnccn4)CC3)ncn2)C1", "% Inhibition": -11, "Z score": 1.29}
{"smiles": "COc1ccc(Cl)cc1C(c1c(C)n(C)c2ccccc12)c1c(C)n(C)c2ccccc12", "% Inhibition": -7, "Z score": 0.92}
{"smiles": "O=C(Nc1ccc2c(c1)C(O)=Nc1cccnc1O2)c1ccco1", "% Inhibition": 8, "Z score": -0.89}
{"smiles": "O=C(NC1CCN(Cc2ccccc2)CC1)c1cn(C[C@H]2CCCO2)nn1", "% Inhibition": -16, "Z score": 2.13}
{"smiles": "O=C1CCC2(CCN(C(=O)c3ccncc3)CC2)CN1CCc1ccncc1", "% Inhibition": -10, "Z score": 1.1}
{"smiles": "CCCN(Cc1cnn(C)c1)C(=O)NC1CCC(C(=O)NC)CC1", "note": "(configuration not stated)", "% Inhibition": 6, "Z score": -0.6}
{"smiles": "Cn1ncc(Nc2ncncc2Br)c1C(F)F", "% Inhibition": -5, "Z score": 0.81}
{"smiles": "Cc1ccc(C(C)(C)NCc2cn(C)nn2)cn1", "% Inhibition": -9, "Z score": 1.53}
{"smiles": "Cc1c(C(C)C)c(=O)n(-c2ccc(S(=O)(=O)N3CCN(c4nc5ccccc5nc4-c4ccccc4)CC3)cc2)n1C", "% Inhibition": 34, "Z score": -4.54}
{"smiles": "C[C@@H](c1cccc(Cl)c1)N(C)CC(N)=O", "% Inhibition": -4, "Z score": 0.79}
{"smiles": "CCN(CC)c1onc(-c2ccccc2)c1CN(CC(O)CN1CCOCC1)CC1CCCO1", "note": "(configuration not stated)", "% Inhibition": -11, "Z score": 1.07}
{"smiles": "COCCNC(=O)NC(=O)CN1CCCC[C@@H]1C", "% Inhibition": -4, "Z score": 0.53}
{"smiles": "CC(C)c1ccc2c(c1)CC[C@H]1[C@](C)(CNC(=O)Cn3nc(-c4ccccc4F)ccc3=O)CCC[C@]21C", "% Inhibition": 6, "Z score": -0.72}
{"smiles": "O=C(COC1CCCCC1)Nc1nc(-c2ccc3c(c2)OCO3)cs1", "% Inhibition": -13, "Z score": 2.6}
{"smiles": "Cc1cc(-c2ccc(C(=O)N(C)CC3(CO)CCC3)cc2)cc(C)c1O", "% Inhibition": -9, "Z score": 1.2}
{"smiles": "CC1(C)C(=O)NC(=O)N1C(=O)c1ccccc1", "% Inhibition": 7, "Z score": -1.06}
{"smiles": "CC(=O)c1c(C)nn([C@@H](C)Cc2nc(-c3cccnn3)no2)c1C", "% Inhibition": -11, "Z score": 1.53}
{"smiles": "Cc1nc(N2CCC(NCCc3cccnc3)CC2)c2ccsc2n1", "% Inhibition": -13, "Z score": 1.41}
{"smiles": "OCc1ccc(Oc2cc(F)c(CN3CCCC3)c(Cl)c2)cc1", "% Inhibition": 6, "Z score": -1.21}
{"smiles": "CCN(CC)S(=O)(=O)c1ccccc1N", "% Inhibition": 5, "Z score": -0.73}
{"smiles": "CCOC(=O)c1nc(NCC2CCN(Cc3ccccc3F)CC2)c2ccccc2n1", "% Inhibition": -6, "Z score": 1.09}
{"smiles": "CCOc1cc(C(=O)N2CCn3cccc3[C@@H]2CC)n[nH]1", "% Inhibition": -3, "Z score": 0.45}
{"smiles": "CCN=C(NCc1noc(C)n1)NCc1ccccc1OC(C)(C)C", "% Inhibition": -6, "Z score": 0.55}
{"smiles": "[O-][n+]1cc(O)c(CN2CCOCC2)c2ccccc21", "% Inhibition": -2, "Z score": 0.32}
{"smiles": "C[C@H](NCc1ccc(Cn2ccnc2)cc1)c1cc(Cl)cc(Cl)c1", "% Inhibition": -4, "Z score": 0.66}
{"smiles": "CCOc1ccnc(NCC[C@H]2CCCN(C)C2)n1", "% Inhibition": -1, "Z score": 0.12}
{"smiles": "CCc1cnc(CN(C)c2nc(C)cc(C)c2C#N)s1", "% Inhibition": -8, "Z score": 1.66}
{"smiles": "O=C(O)c1ccc(C(=O)N(CCC(F)(F)F)C2CCC2)cn1", "% Inhibition": -3, "Z score": 0.32}
{"smiles": "Cc1ccc(-c2c3c(=O)n(C)c(=O)n(C)c3c3n2-c2ccccc2O[C@@H]3c2ccccc2O)cc1", "% Inhibition": 6, "Z score": -0.85}
{"smiles": "CC(=O)c1cc(C(=O)N2CCC(C)CC2c2ccco2)ccc1C", "note": "(configuration not stated)", "% Inhibition": -26, "Z score": 2.73}
